Consider four molecules from patent publication US20170253656A1.

The chains are these.
B1: HC 1251_B08 (wt)/LC 1337_A07 (wt) (antibody, human IgG1, kappa)
heavy: MQVQLVESGGGVVQPGRSLRLSCAASGFNFSDYGMHWVRQAPDKGLEWVAVIWYDGSISYYADSVKGRFTISRDNSKNTLYLQMNSLRAEDTAVYYCARGGTVEHGAVYGTDVWGQGATVTVSS[human IgG1 constant region omitted]GGSHHHHHH
light: MDIQMTQSPSSLSASVGDRVTITCRASQGISSWVAWYQQKPEKAPKSLIYGASRLQSGVPSRFSGSGSGTDFTLTISSLQPEDFATYYCQQYHTYPLTFGGGTKVEIKRTVAAPSVFIFPPSDEQLKSGTASVVCLLNNFYPREAKVQWKVDNALQSGNSQESVTEQDSKDSTYSLSSTLTLSKADYEKHKVYACEVTHQGLSSPVTKSFNRGEC
B2: HC 1251_B08 (wt)/LC 1337_A10 (g) (antibody, human IgG1, kappa)
heavy: MQVQLVESGGGVVQPGRSLRLSCAASGFNFSDYGMHWVRQAPDKGLEWVAVIWYDGSISYYADSVKGRFTISRDNSKNTLYLQMNSLRAEDTAVYYCARGGTVEHGAVYGTDVWGQGATVTVSS[human IgG1 constant region omitted]GGSHHHHHH
light: MDIQMTQSPSSVSASVGDRVTITCRASQGISSWVAWYQQKPGKAPKLLIYGSSRLQSGVPSRFSGSGSGTDFTLTISSLQPEDFATYYCQQYNTYPLTFGGGTKVEIKRTVAAPSVFIFPPSDEQLKSGTASVVCLLNNFYPREAKVQWKVDNALQSGNSQESVTEQDSKDSTYSLSSTLTLSKADYEKHKVYACEVTHQGLSSPVTKSFNRGEC
B3: HC 1251_B08 (wt)/LC 1337_A10 (wt) (antibody, human IgG1, kappa)
heavy: MQVQLVESGGGVVQPGRSLRLSCAASGFNFSDYGMHWVRQAPDKGLEWVAVIWYDGSISYYADSVKGRFTISRDNSKNTLYLQMNSLRAEDTAVYYCARGGTVEHGAVYGTDVWGQGATVTVSS[human IgG1 constant region omitted]GGSHHHHHH
light: MDIQMTQSPSSLSASVGDRVTITCRASQGISSWVAWYQQKPEKAPKSLIYGSSRLQSGVPSRFSGSGSGTDFTLTISSLQPEDFATYYCQQYNTYPLTFGGGTKVEIKRTVAAPSVFIFPPSDEQLKSGTASVVCLLNNFYPREAKVQWKVDNALQSGNSQESVTEQDSKDSTYSLSSTLTLSKADYEKHKVYACEVTHQGLSSPVTKSFNRGEC
B4: HC 1251_B08 (wt)/LC 1337_A07 (g) (antibody, human IgG1, kappa)
heavy: MQVQLVESGGGVVQPGRSLRLSCAASGFNFSDYGMHWVRQAPDKGLEWVAVIWYDGSISYYADSVKGRFTISRDNSKNTLYLQMNSLRAEDTAVYYCARGGTVEHGAVYGTDVWGQGATVTVSS[human IgG1 constant region omitted]GGSHHHHHH
light: MDIQMTQSPSSVSASVGDRVTITCRASQGISSWVAWYQQKPGKAPKLLIYGASRLQSGVPSRFSGSGSGTDFTLTISSLQPEDFATYYCQQYHTYPLTFGGGTKVEIKRTVAAPSVFIFPPSDEQLKSGTASVVCLLNNFYPREAKVQWKVDNALQSGNSQESVTEQDSKDSTYSLSSTLTLSKADYEKHKVYACEVTHQGLSSPVTKSFNRGEC

The test deals with CD74 on CD74 positive SU-DHL-6 cells, P04233. The experiment in a line: cell-based or functional assay.
Take B1: the 2ND ADC CELL KILL ACTIVITY IC50 stood at 16 pM.

Consider B2, for which the 2ND ADC CELL KILL ACTIVITY IC50 turned out to be 46 pM.

The molecule B3 gave a 2ND ADC CELL KILL ACTIVITY IC50 of 17 pM.

Consider B4, for which the 2ND ADC CELL KILL ACTIVITY IC50 was 37 pM.
